Assay results taken from a collection of fitness landscapes (doi:10.1016/j.celrep.2020.107928).
Over roughly 81,000 sequences, “one-hybrid fitness for binding NBS DNA” has its median near -0.1; the highest 2% begin near 0.36. This is one part of the list.

B1: Caulobacter ParB omega fusion; a variant is named by its letters at X, in order, B8GW30 (parent)
chain: MESVVVGEPGMSEGRRGLGRGLSALLGEVDAAPAQAPGEQLGGSREAPIEILQRNPDQPRRTFREEDLEDLSNSIREKGVLQPILVRPSPDTAGEYQIVAGERAWRAAQRAGLKTVPIMVRELDDLAVLEIGIIENVQRADLNVLEEALSYKVLMEKFERTQENIAQTIGKSXSHVANXMRLLXLPDEVQSYLVSGELTAXHARAIAAAADPVALAKQIIEGGLSVRETEALARKAPNLSAGKSKGGRPPRVKDTDTQALESDLSSVLGLDVSIDHRGSTGTLTITYATLEQLDDLCNRLTRGI

Variants of: B1
Assay: one-hybrid fitness for binding NBS DNA (the Noc-binding site; scaled: cognate 1, non-cognate 0); higher = stronger binding
Conditions: with NBS DNA site
How it was run: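 On M9-minus-histidine containing 0.1 mM IPTG and 5 mM 3-AT, E. coli USO cells with a HIS3 reporter, site 19 bp from the promoter, grew 48 hours at 37°C to select Caulobacter ParB libraries randomised at four specificity codons. Plasmids from before and after were Illumina-sequenced, with three replicate libraries pooled and variants under 10 reads left out. Fitness is the log change in variant-to-wild-type read ratio, rescaled against cognate and non-cognate.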

one-hybrid fitness for binding NBS DNA, 0.28:
RIVR

one-hybrid fitness for binding NBS DNA, 0.215:
QVRC

one-hybrid fitness for binding NBS DNA, 0.274:
RAKY

one-hybrid fitness for binding NBS DNA, ≤ 0.2:
APHV
FEPF
IKNS
LPDG
QHQD
MKPR
QNQY
HYKC
KLFG
KLQG
EAQF
LDSV
RCTK
QRWE
QKCK
HLRM
YKQP
NFHC
LWMG
HTIV
YKDC
ENTE
IMAS
QREW
TIIR
ALYW
WPHT
PCAD
ALWS
QNKA
LKHN
KEQS
TACT
QHLP
LSNY
WVGK
MHLT
GRNA
WHGM
IHID
YMPF
HSKP
SGPT
FGTW
PVTA
AYNT
YFEV
PDKK
VLDN
TMFL
NRWL
CFTR
ENMV
DHRQ
GWCG
GTEE
PESD
LVGE
VRSS
LMRL
TIRH
NELR
PMSY
AQKQ
ALKG
ILTT
YAGG
ENYK
EHTT
QMSE
HAWT
FRFC
CQHW
YFLR
KMLK
GPHT
RKTD
MHPF
IQYE
RSIA
PWAL
KLNP
HARG
KCKP
AYAN
LDIY
THCG
DPCR
SHKI
QFLT
KMDS
YPCG
NHAF
LRNV
NRGA
WLAG
GRGL
IGNN
VHMY
VEAQ
VGKT
QQHV
APAI
VFVR
KVIT
QFGG
RFYW
HWQF
QYHV
VVAC
NQQV
QPKD
QLSE
IIYF
ASYG
YRGC
CDAS
LWDC
LRTE
GLGP
EKES
NLGV
FRGE
MIPG
IVFG
TAEL
QPHR
PLWR
PPRA
QGNY
MIYS
LHYR
QVTK
PGGV
KNRS
QGQG
MTLR
RDFA
MQAT
NGEN
RFEM
YAPE
GQHW
ALRN
RKIG
LISA
PPQE
QTIY
MSNK
AVKS
PMMV
NCHW
NIAA
STRK
RIVF
RMLI
AAPC
TGEV
VYNQ
TVSI
PPIG
PACW
KMLC
TFSE
PNET
WTVT
FREP
CSQG
SCLK
DHRY
CSQN
LYDW
AIDD
WFWS
KAES
THQN
PYSH
SGHP
PTFV
TYIS
YLKS
DAVV
SSSW
KYTK
ENRC
WNHS
WVTL
VSKF
TATN
HVLL
VILS
SHTP
SCDS
DHWS
QATL
EQTF
IDSE
LMCK
QFDG
RAIA
TLHI
TRPH
IHAS
HEHS
TNLD
LANI
PEHG
NTTG
IPPR
DTVK
KKHY
TNQV
REDG
NDVT
SWCS
VKRA
NVDW
RGMF
AWNT
MLKC
MPLT
DNRC
HSRD
SVIN
AYHY
RHRD
PVGR
RNTM
HMKT
GPMF
ICWG
NLFT
SQLI
WAEL
HSGN
PTGE
AWLR
NPES
QLVS
NWLA
MFRS
LWAI
YFQT
HLEG
KERY
KIAD
PAHV
AAEC
IKCV
RQPW
AGCM
KTTY
CTTS
RTSW
TVFG
LKCE
KIQR
RELW
VTPE
MSLE
AVTS
KHQR
MAKV
GISG
EFNW
QYIA
FMAV
RYSW
ETAV
SPPM
PLES
VLAC
QSDN
YFAC
KNWS
VCSL
VLQG
DLWM
VPMG
DVPS
PRSH
AVPD
LPPN
TPHT
LIVC
HENI
PQKM
QMPD
KWDT
KRLN
HAWS
ERGK
RMAQ
THAI

one-hybrid fitness for binding NBS DNA, 0.201:
QWYR

one-hybrid fitness for binding NBS DNA, 0.214:
QTNL

one-hybrid fitness for binding NBS DNA, 0.203:
QGWR

one-hybrid fitness for binding NBS DNA, 0.301:
QCES

one-hybrid fitness for binding NBS DNA, 0.288:
QRHW

one-hybrid fitness for binding NBS DNA, 0.226:
RRMV

one-hybrid fitness for binding NBS DNA, 0.468:
RQHS

one-hybrid fitness for binding NBS DNA, 0.385:
QSGT

one-hybrid fitness for binding NBS DNA, 0.525:
QCRV
